Like-named read-outs stand apart in the source and are kept apart here.
Assays:
calmodulin (CaM) [1] = target: T1, calmodulin (CaM) ( (mammalian), UniProt P0DP23); assay: composition gradient multi-angle light scattering
calmodulin (CaM) [2] = target: T1, calmodulin (CaM); assay: composition gradient multi-angle light scattering; remark: listed apart in the source
calmodulin (CaM) [3] = target: T1, calmodulin (CaM); assay: SEC-MALS

Kd (calmodulin (CaM) [1]): 0.06 nM
Kd (calmodulin (CaM) [2]): 0.6 nM
stoichiometry N (calmodulin (CaM) [3]): 1
B1: SK peptide (SKp), tagless recombinant fragment […] of the small-conductance Ca2+-activated K+ channel SK2 (KCa2.2) (domain or fragment)
chain: not shown
modifications: small amount of modification (minor peaks +179 and +258 D), consistent with gluconoylation at the N terminus

Reference: paper PMC4001768 (The Journal of General Physiology, 2014)
